Measurements reported in article PMC4336329 (PLoS ONE, 2015).
The campaign covered roughly 310,000 compounds. About 14,000 (4.5%) showed an effect of 50% or more. Effects have a minus sign here. The list shows a part of the results.

Biological target: human ether-à-go-go-related gene (hERG) potassium channel (human, UniProt Q12809)
Experiment: primary screen, population patch clamp on CHO cells stably expressing hERG
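Further: peak tail current of the secondary pulse compared with the same well before compound.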

Chain of human ether-à-go-go-related gene (hERG) potassium channel (Q12809 whole entry, looked up): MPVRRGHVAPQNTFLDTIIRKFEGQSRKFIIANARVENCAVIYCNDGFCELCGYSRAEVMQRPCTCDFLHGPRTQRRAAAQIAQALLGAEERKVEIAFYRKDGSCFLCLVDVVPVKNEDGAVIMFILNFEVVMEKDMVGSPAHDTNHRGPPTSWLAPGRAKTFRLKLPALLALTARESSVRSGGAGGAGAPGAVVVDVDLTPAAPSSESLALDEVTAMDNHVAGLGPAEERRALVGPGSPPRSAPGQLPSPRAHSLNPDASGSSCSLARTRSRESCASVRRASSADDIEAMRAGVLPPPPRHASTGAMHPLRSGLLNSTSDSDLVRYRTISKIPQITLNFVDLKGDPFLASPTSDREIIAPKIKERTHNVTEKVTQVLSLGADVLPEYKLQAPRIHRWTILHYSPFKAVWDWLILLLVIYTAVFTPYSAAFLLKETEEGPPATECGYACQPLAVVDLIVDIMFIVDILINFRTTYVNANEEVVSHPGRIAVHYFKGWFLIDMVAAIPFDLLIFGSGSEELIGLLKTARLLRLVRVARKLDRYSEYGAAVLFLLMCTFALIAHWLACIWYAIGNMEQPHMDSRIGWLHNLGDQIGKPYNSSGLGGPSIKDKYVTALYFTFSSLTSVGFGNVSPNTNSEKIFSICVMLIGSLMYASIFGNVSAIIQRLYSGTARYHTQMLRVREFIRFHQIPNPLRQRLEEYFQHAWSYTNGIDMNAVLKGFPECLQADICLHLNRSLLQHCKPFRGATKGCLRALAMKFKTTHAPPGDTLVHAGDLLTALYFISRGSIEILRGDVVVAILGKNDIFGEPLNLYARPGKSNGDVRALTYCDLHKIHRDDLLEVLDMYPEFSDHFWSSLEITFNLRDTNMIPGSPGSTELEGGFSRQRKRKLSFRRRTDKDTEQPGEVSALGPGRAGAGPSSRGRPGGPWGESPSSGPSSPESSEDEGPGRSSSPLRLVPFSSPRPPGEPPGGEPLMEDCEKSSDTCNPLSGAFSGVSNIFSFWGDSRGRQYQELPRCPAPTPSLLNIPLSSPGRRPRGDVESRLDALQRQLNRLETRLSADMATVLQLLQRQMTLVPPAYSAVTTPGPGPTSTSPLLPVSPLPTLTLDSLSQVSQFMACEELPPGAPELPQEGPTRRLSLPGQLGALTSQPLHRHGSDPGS

Structure (SMILES) | hERG current change (%, negative = inhibition) at 10uM
O=C(O)C(=O)O.O=C(c1cccs1)N1CCN(C2CCCCC2)CC1 | -32.4%
CCOC(=O)Cn1c(=O)c2c(nc3n2CCN3Cc2ccccc2)n(C)c1=O | -22.2%
CC(=O)OC(Cn1nc(C)cc1C)c1ccccc1 (centres unmarked) | 5.36%
COc1ccc(OC)c(NC(=O)NC2(C(F)(F)F)Oc3ccccc3O2)c1 | -2.33%
CC(=O)NS(=O)(=O)c1ccc(NC(=O)c2cc(-c3ccc(C)c(C)c3)nc3ccccc23)cc1 | 12.3%
COc1cc(N2CCCC2)c(OC)cc1/C=C(/C#N)c1cccc(F)c1 | 9.14%
Cc1nc(-c2nnc(SCC(=O)Nc3cc(Cl)cc(Cl)c3)n2C)cs1 | 5.49%
CC(C)N1CCN(Cc2ccoc2)CC1CCO (centres unmarked) | 12.2%
C[n+]1cccc2ccc3c(c21)OC(N)=C(C#N)C3c1ccccc1.[I-] (centres unmarked) | -20.2%
Cc1nc(-c2ccc(S(=O)(=O)Nc3cc(F)ccc3F)cc2)co1 | -14.1%
CCCCC(OC(=O)CN1C(=O)COc2ccccc21)C(=O)NC1CCCCC1 (centres unmarked) | -30.8%
COc1cc(/C=N/NC(=O)c2ccc(CSc3nc4ccccc4[nH]3)cc2)ccc1O | 11%
COC(=O)c1cc(S(=O)(=O)N2CCN(Cc3ccccc3)CC2)c[nH]1 | 8.38%
O=C(Nc1ccccc1)C1Cc2ccccc2CN1C(=O)c1ccco1 (centres unmarked) | 6.64%
COc1cc(NC(=O)c2ccc3c(c2)OCCO3)ccc1NC(=O)c1ccccc1Cl | 8.88%
O=C(Nc1ccccc1Cl)C1CCCN(c2ncnc3c2nc2n3CCCCC2)C1 (centres unmarked) | -59.4%
CCOc1ccc(S(=O)(=O)N2CCC(C(=O)NCc3ccco3)CC2)cc1C | 4.16%
O=C(NC(=S)NCc1ccc(-c2nc3ccccc3s2)cc1)c1ccco1 | 34%
COc1cccc(-c2nc(-c3ccccn3)no2)c1 | 2.54%
O=C(O)/C=C\c1ccccc1Oc1ccc(F)cc1 | 13.3%
Cc1ccc(-n2nnc3ccccc3c2=O)cc1C | -2.63%
Cc1ccccc1C(=O)N1CCC(C(=O)Nc2sccc2C(N)=O)CC1 | -23.5%
CCc1cc2c3c(c(=O)oc2cc1OC)CCCC3 | 6.26%

Structure (SMILES) | hERG current change (%, negative = inhibition) at 10uM
COc1cccc(/C=C2/Sc3ccc(C(=O)NCCN4CCCC4)cc3NC2=O)c1 | -39.1%
CCc1ccc(C(=O)NNC(=O)CC2OC(=O)c3ccccc32)cc1 (centres unmarked) | -48.3%
CCN(CC(=O)NCc1ccc(F)cc1)C(=O)c1oc2ccccc2c1C | -43.9%
CCOC(=O)c1c[nH]c2c3c(ccc2c1=O)CCCC3 | -7.96%
COC(=O)[C@@H](NC(=O)c1ccc2c(c1)S(=O)(=O)c1ccccc1C2=O)C(C)C | 8.57%
Cc1ccc(-n2c(C)c(C)c3c(NCCCO)ncnc32)cc1 | -9.69%
Cc1ccc2[nH]c(=O)c(CN(CCc3ccccc3)Cc3nnnn3CC3CCCO3)cc2c1 (centres unmarked) | -16%
CCN(CC(=O)NC(C)C)C(=O)c1ccc(Cl)cc1 | 2.39%
COCc1ccc(CN2CCCCC2C(=O)Nc2ccc(Oc3ccccc3)nc2)o1 (centres unmarked) | -0.373%
O=C(Nc1nnc(-c2ccccc2)s1)c1ccccc1F | 13.5%
CC(C)c1ccc(NC(=O)COc2ccc(S(=O)(=O)N3CCOCC3)cc2)cc1 | -1.05%
Cc1ccc(C)c(OCC(=O)NCC(c2ccco2)N2CCCCC2)c1 (centres unmarked) | -2.72%
N#Cc1nc(-c2ccccc2)oc1NCc1ccco1 | 8.64%
CCCCCc1cc(=O)oc2c(C(CCN(CC)CC)c3ccc(OC)cc3)c(OC)cc(OC)c12 (centres unmarked) | -55.2%
Cc1ccc(/C=C/C(=O)Oc2ccc(C#N)cc2)o1 | 17.5%
CC1=Nc2cc(C(=O)N3CCCCC3)ccc2Sc2ccc(C)cc21 | -17.8%
CCc1cc(=O)oc2c(CN3CCN(C)CC3)c(O)ccc12 | 8.25%
COc1ccc(S(=O)(=O)N2CCCCC2)cc1NC(=O)c1ccc(Cl)nc1 | -19.1%
O=C(O)CN1C(=O)/C(=C\c2cc(Br)ccc2OCc2ccc(Cl)cc2)SC1=S | 15.2%
Cc1ccc(/C=C2\SC(N)=NC2=O)s1 | 11.2%
Cc1cc(C)cc(N2C(=O)C3NN=C(C(=O)OCc4ccccc4)C3C2=O)c1 (centres unmarked) | -28.1%
COCCn1c(=NC(=O)c2ccc(S(=O)(=O)N3CCCc4ccccc43)cc2)sc2cc(S(C)(=O)=O)ccc21 | 3.1%
CCSc1nnc2c(n1)OC(C)(C)Nc1ccccc1-2 | 15.4%

Structure (SMILES) | hERG current change (%, negative = inhibition) at 10uM
O=C(COC(=O)c1cccs1)Nc1ccccc1[N+](=O)[O-] | 3.28%
CCCNC(=O)Cn1cnc2sc(C(=O)N3CCCC(C(=O)OCC)C3)c(C)c2c1=O (centres unmarked) | 9.74%
O=C(NCc1ccco1)c1c2c(nc3ccccc13)CCC2 | -24.8%
CC(C)(C)c1nnc(NC(=O)CCn2cnc3ccccc3c2=O)s1 | 5.12%
NC(=O)c1ccc(NC(=O)COC(=O)CCc2ccc(S(=O)(=O)N3CCCCC3)cc2)cc1 | 14.6%
CC(C)C[C@H](NC(=O)Nc1cccc(Br)c1)C(=O)O | 10.3%
COc1ccc(CCC(=O)Nc2ccc(S(=O)(=O)Nc3nccc(C)n3)cc2)cc1 | 44.2%
CC1=Nc2ccc(C)cc2/C1=C/c1c(N)n2oc(C)cc2nc1=O | 18.9%
CC1(C)CC(=O)CC(C2(O)C(=O)N(Cc3ccccc3)c3ccccc32)O1 (centres unmarked) | 7.55%
CCN(CC)S(=O)(=O)c1ccc2[nH]c(=O)cc(C(=O)NCC(c3ccco3)N3CCCC3)c2c1 (centres unmarked) | -10.8%
CC(=O)Nc1ccc(-c2nc3cc(Cl)ccc3o2)cc1 | 17.6%
NS(=O)(=O)c1ccc(NC(=S)N2CCN(c3ccc(Cl)c(Cl)c3)CC2)cc1 | 11.8%
S=C(Nc1nc2c(s1)CCCC2)NC1CC1 | 9.12%
COc1ccccc1C(OC(=O)c1ccco1)C(=O)NC(C)(C)C (centres unmarked) | -3.56%
Cc1nn(Cc2c(F)c(F)c(F)c(F)c2F)c(C)c1NC(=O)c1ccc(COc2ccc(Cl)cc2Cl)o1 | 13.3%
Cc1cccc(NC(=O)CCN2CCOCC2)c1 | 4.24%
Cc1nn(CC(=O)NCc2ccc(-n3cccn3)cc2)c(C)c1[N+](=O)[O-] | -2.8%
CN1CC(=O)N=C1N | 8.56%
CCS(=O)(=O)N1Cc2ccccc2CC1C(=O)NCC12CC3CC(CC(C3)C1)C2 (centres unmarked) | -34.7%
CCN1C(=O)[C@H]2[C@@H](c3ccc(-c4ccccc4)cc3)N[C@@](C)(C(=O)OC)[C@H]2C1=O.O=C(O)C(F)(F)F | 10.6%
Cc1cccc2c(CC(=O)Nc3ccccc3)noc12 | -0.38%
COc1ccc(N2C(=O)C(OC(C)=O)C2c2ccc(C)cc2)cc1 (centres unmarked) | 17.3%
CC(=NC1CC1)c1c(-c2ccccc2)[nH]n(-c2nc3ccccc3s2)c1=O | 9.63%

Structure (SMILES) | hERG current change (%, negative = inhibition) at 10uM
O=C(CN1CCCCCC1)Nc1ccccc1F.O=C(O)C(=O)O | 9.38%
COc1ccccc1C(=O)Nc1nc2ccccc2s1 | 24.5%
COc1ccc(-c2noc(CN3CCCCC3c3nccn3C)n2)cc1 (centres unmarked) | -6.83%
CC(C)N(C)S(=O)(=O)c1ccc(Cl)c(C(=O)O)c1 | 8.12%
CCN1CCN(c2ccc(NC(=O)COc3ccccc3Cl)cc2)CC1 | -40.7%
CC(=O)Nc1cccc(NC(=O)CSc2nc(=O)n(CCN3CCOCC3)c3c2CCC3)c1 | -2.96%
CC(C)NCc1nnc(-c2ccc(Cl)cc2)o1 | 15.9%
CCc1ccc2oc(-c3cc(N=Cc4cccc(OC)c4O)ccc3O)nc2c1 | 24.3%
N#CC(c1ccccn1)c1ncc(C(F)(F)F)cc1Cl (centres unmarked) | 23.5%
Cc1ncsc1CCSc1nc2ccccc2c(=O)n1C | -25.4%
CCOC(=O)c1sc(C)c2c1NC(c1ccc(Cl)cc1)NC2=O (centres unmarked) | -5.32%
CC(=O)c1cccc(NS(=O)(=O)c2cc3c(cc2C)N(C(C)=O)CCO3)c1 | 14.3%
Cc1cc(/C=N/NC(=O)CC#N)c(C)n1-c1ccc([N+](=O)[O-])cc1 | 3.13%
CC(CC(=O)Nc1ccncc1)c1ccccc1 (centres unmarked) | 5.85%
C=C(C)n1c(=O)n(Cc2ccc(C)cc2)c2ccccc21 | 5.7%
COc1ccc(S(=O)(=O)N2CCCC(C(=O)N3CCCC3)C2)cc1OC (centres unmarked) | 4.14%
Cn1c(=O)[nH]c2ncccc21 | 29.1%
Cc1[nH]c2ccc(C(=O)NCCCN3CCOCC3)cc2c1C | 5.18%
O=C(CN1CCCCCCC1)N/N=C/c1ccccc1F | -35.6%
COc1ccc(NC(=O)COC(=O)CCCN2C(=O)c3ccccc3C2=O)cc1Cl | -47.2%
